{
  "source": "PubChem BioAssay AID1671194",
  "about": "(National Center for Advancing Translational Sciences (NCATS), 2021)",
  "note": "In all, about 140,000 compounds went through this assay and about 240 (0.17%) were called active. Inconclusive means that the source gave no clear call. Such entries were picked first, then a sample of the others. Calls come from the whole dose curve; as a rule, active = well fitted inhibition curve with a large enough effect; inconclusive = small, poorly fitted or top-dose-only effect; inactive = no such curve, though single readings can be large or run the other way. Potencies of inconclusive entries are doubtful fits and often do not repeat. Potency is the fitted concentration of half-maximal effect; tags give direction and shape of the fitted curve.",
  "data": [
    {"assay": "Primary qHTS assay for inhibitors of alpha-synuclein gene (SNCA) expression; note: nearly all actives have a fitted effect of over 45% in size;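 for activity change, negative = inhibition: plate controls were DMSO cells for no effect and cell-free wells for full effect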", "conditions": "HEK-293 SNCA-luciferase knock-in, luminescence, 24 h; activity change, negative = inhibition: at 57.2 µM (top of the series) unless noted", "values": [
      {"smiles": "COc1ccc(C(=O)Nc2ccc(-n3nncc3-c3ccc(OC)c(OC)c3)cc2)cc1", "Potency": "inconclusive: 22.4 µM [inhibitor, partial curve, poor fit]"},
      {"smiles": "Cc1ccc(CNc2ccc(-c3nc(-c4ccco4)no3)cc2[N+](=O)[O-])cc1", "Potency": "inconclusive: 39.8 µM [inhibitor, single point]"},
      {"smiles": "CNC(=O)c1cn2c(n1)CN(C(=O)c1ccccc1F)CC2", "Potency": "inconclusive: 12.6 µM [inhibitor, partial curve, poor fit]"},
      {"smiles": "CN1C(=O)CS(=O)C12CCN(C(=O)C1(c3ccccc3)CC1)CC2", "note": "(configuration not stated)", "Potency": "inconclusive: 6.31 µM [inhibitor, single point]"},
      {"smiles": "CCN(Cc1cnn(CC)c1)C(=O)c1c(C)oc2c1CN(Cc1ccc(F)cc1)CC2", "Potency": "inconclusive: 31.6 µM [inhibitor, single point]"},
      {"smiles": "c1ccc(CN2CCC(Oc3nccnc3N3CCc4ccccc43)C2)nc1", "note": "(configuration not stated)", "Potency": "inconclusive: 39.8 µM [inhibitor, single point]"},
      {"smiles": "Cc1cc(OC2CN([S+](=O)([O-])c3cccs3)C2)ccc1F", "Potency": "inconclusive: 15.8 µM [inhibitor, partial curve, poor fit]"},
      {"smiles": "CC(C)C(=O)NCC1CN(Cc2ccccc2)C(=O)c2c(ccnc2-c2ccc(OCC(=O)O)cc2)O1", "note": "(configuration not stated)", "Potency": "active: 2.82 µM"},
      {"smiles": "CCOc1ccccc1-c1noc(-c2nnn3c2COC(c2ccc(OC)cc2)C3)n1", "note": "(configuration not stated)", "activity change, negative = inhibition": "inactive: 4.95%"},
      {"smiles": "CCOCCNC(=O)C1CCCN1Cc1ccc(-c2cc(C)cc(C)c2)cc1", "note": "(configuration not stated)", "activity change, negative = inhibition": "inactive: -13.9%"},
      {"smiles": "COC(=O)C1=CN(CC(=O)N(C)c2cccc(C)c2)S(=O)(=O)N=C1C", "activity change, negative = inhibition": "inactive: 4.82%"},
      {"smiles": "CC(C)c1cc(-c2nc(-c3ccccc3)no2)n[nH]1", "Potency": "inconclusive: 10 µM [inhibitor, partial curve]"},
      {"smiles": "Cc1nc(N2CCCC2)c2c(C(=O)N3CCN(c4cccc(C)c4C)CC3)c(C)oc2n1", "Potency": "inconclusive: 39.8 µM [inhibitor, single point]"},
      {"smiles": "CNC(=O)[C@@H]1CN(Cc2ccc(Cl)cc2F)C[C@H]1CO", "activity change, negative = inhibition": "inactive: -11.6%"},
      {"smiles": "CC(C)CC(=O)N1CCC(N2C(=O)C3(CCCC3)C2c2ccccc2)CC1", "note": "(configuration not stated)", "activity change, negative = inhibition": "inactive: 2.61%"},
      {"smiles": "O=C(CSc1nc(-c2ccccc2)[nH]c1-c1ccccc1)Nc1ccc2c(c1)OCCO2", "Potency": "inconclusive: 3.55 µM [inhibitor, single point]"},
      {"smiles": "CCc1ccc2oc(-c3ccc(NC(=O)c4cc(OC)c(OC)c(OC)c4)cc3)nc2c1", "activity change, negative = inhibition": "inactive: -7.41%"},
      {"smiles": "O=C(Nc1cccc2cccnc12)c1ccc(F)cc1", "activity change, negative = inhibition": "inactive: 129%"},
      {"smiles": "O=C(C[C@H]1NC(=O)c2ccccc2NC1=O)Nc1ccc(F)c(F)c1F", "Potency": "inconclusive: 39.8 µM [inhibitor, single point]"},
      {"smiles": "CCOc1cc(C2CC(=O)Nc3nc(SCc4ccccc4)[nH]c(=O)c32)ccc1O", "note": "(configuration not stated)", "Potency": "inconclusive: 35.5 µM [inhibitor, single point]"},
      {"smiles": "CCc1ccc(CNC(=O)CCCN2C(=O)c3cccnc3Oc3ccc(Cl)cc32)cc1", "Potency": "inconclusive: 39.8 µM [inhibitor, single point]"},
      {"smiles": "Cn1nccc1OCc1cn2c(=O)n(C)cc(-c3ccsc3)c2n1", "activity change, negative = inhibition": "inactive: 32.1% [at 87.6 µM]"},
      {"smiles": "Cc1ccc(-c2c(C(=O)N(C)Cc3ccccc3)oc(=O)c3ccccc23)cc1", "Potency": "inconclusive: 28.2 µM [inhibitor, single point]"},
      {"smiles": "CCOC(=O)N1CCC(NC2CC(=O)N(CCc3ccc(OC)cc3)C2)CC1", "note": "(configuration not stated)", "Potency": "inconclusive: 35.5 µM [inhibitor, single point]"},
      {"smiles": "O=C(Nc1ccc(F)cc1)c1ccc(CN2C(=O)NC3(CCOCC3)C2=O)cc1", "Potency": "inconclusive: 35.5 µM [inhibitor, single point]"},
      {"smiles": "COc1ccccc1NC(=O)CC1CCCN(c2cnn(C)c(=O)c2)C1", "note": "(configuration not stated)", "Potency": "inconclusive: 1.58 µM [inhibitor, partial curve, poor fit]"},
      {"smiles": "O=C(CCS(=O)(=O)c1nc(-c2ccc3c(c2)OCO3)cc(C(F)(F)F)n1)Nc1ccc(F)cc1F", "Potency": "inconclusive: 17.8 µM [inhibitor, partial curve, poor fit]"},
      {"smiles": "COc1ccccc1CCC(=O)NC1CCN(C(=O)c2cc3c(=O)[nH]c(C)cn3n2)CC1", "Potency": "inconclusive: 3.16 µM [inhibitor, partial curve, poor fit]"},
      {"smiles": "CCCCOC(=O)c1c(C)oc2ccc(NS(=O)(=O)c3ccc(F)cc3C)cc12", "Potency": "inconclusive: 4.47 µM [inhibitor, single point]"},
      {"smiles": "COc1ncccc1-c1cnc2n[nH]c(-c3ccccc3C)c2n1", "Potency": "inconclusive: 14.1 µM [inhibitor, partial curve, poor fit]"},
      {"smiles": "CCOC(=O)c1ccc(NC(=O)Cn2cc(C(=O)c3cccs3)c3ccccc32)cc1", "Potency": "inconclusive: 39.8 µM [inhibitor, single point]"},
      {"smiles": "Cc1ccccc1C(=O)N1CC(c2nc(CCc3ccccc3)no2)C1", "Potency": "inconclusive: 1.58 µM [inhibitor, partial curve, poor fit]"},
      {"smiles": "COc1cc2nc(Nc3ccc(C)c(C)c3)nc(N)c2cc1OC", "Potency": "inconclusive: 20 µM [inhibitor, single point]"},
      {"smiles": "COc1cc(Cl)ccc1C(=O)NC1CCN(c2cc(-c3ccc(F)cc3)[nH]n2)C1", "note": "(configuration not stated)", "Potency": "inconclusive: 39.8 µM [inhibitor, single point]"},
      {"smiles": "O=c1oc2c(O)c(O)cc3c(=O)oc4c(O)c(O)cc1c4c23", "activity change, negative = inhibition": "inconclusive: -30.7% [inhibitor]"},
      {"smiles": "c1csc(CN2Cc3[nH]cnc3C[C@H]2c2nc(-c3ccc4ccccc4c3)no2)c1", "Potency": "inconclusive: 31.6 µM [inhibitor, partial curve]"},
      {"smiles": "c1ccc(-c2ccc(N3CCCC4(CCNCC4)C3)cc2)cc1", "Potency": "inconclusive: 39.8 µM [inhibitor, single point]"},
      {"smiles": "Cc1ccc(/C=C/c2nc3ccccc3n2S(=O)(=O)c2cccc(Cl)c2)cc1", "Potency": "inconclusive: 2.24 µM [inhibitor, full curve, poor fit]"},
      {"smiles": "O=C(C1CCC1)N1CCC2(CC1)CC(Cc1nc(-c3cnccn3)no1)CCO2", "note": "(configuration not stated)", "activity change, negative = inhibition": "inactive: -18%"},
      {"smiles": "Oc1cccc(-c2nc(-c3cccs3)c(-c3cccs3)[nH]2)c1", "Potency": "inconclusive: 7.94 µM [inhibitor, full curve, poor fit]"},
      {"smiles": "Cc1ccc(S(=O)(=O)Nc2ccc3c(c2)CCCN3C(=O)c2cccs2)cc1C", "Potency": "inconclusive: 17.8 µM [inhibitor, single point]"},
      {"smiles": "COc1cc(Br)c(C2CC(=O)Nc3cc4c(cc32)OCCO4)cc1OC", "note": "(configuration not stated)", "Potency": "inconclusive: 28.2 µM [inhibitor, single point]"},
      {"smiles": "CCc1ccc(CNC(=O)c2ccc(-n3c(C)cc4c3CCC(C)C4)cc2)cc1", "note": "(configuration not stated)", "Potency": "inconclusive: 15.8 µM [inhibitor, partial curve, poor fit]"},
      {"smiles": "CCOCCOC1CCN(C(=O)c2ccccc2OC)CC1", "activity change, negative = inhibition": "inactive: -3.76%"},
      {"smiles": "COc1ccc(CCNC(=O)c2c(C)noc2-c2cc(OC)cc(OC)c2)cc1", "Potency": "inconclusive: 1.26 µM [inhibitor, full curve, poor fit]"},
      {"smiles": "CC(C)C[C@@H]1N[C@H](C(=O)NCCN(C)C)Cc2c[nH]c3cccc1c23", "Potency": "inconclusive: 39.8 µM [inhibitor, single point]"},
      {"smiles": "Cc1ccc(CNC(=O)c2cc3n(n2)CC(c2ccc(Cl)cc2)OC3)cc1", "note": "(configuration not stated)", "Potency": "inconclusive: 39.8 µM [inhibitor, single point]"},
      {"smiles": "Cc1ccc(C2c3[nH]c4ccccc4c3CCN2C(=O)CSc2ccccc2)cc1", "note": "(configuration not stated)", "Potency": "inconclusive: 39.8 µM [inhibitor, single point]"},
      {"smiles": "COc1ccc(-n2c(=O)c3c(n2Cc2ccccc2)CN(C(=O)C2CCC(OC)CC2)CC3)cc1", "note": "(configuration not stated)", "activity change, negative = inhibition": "inactive: -13.2%"},
      {"smiles": "Cc1ccc(C(=O)N2CCCC(C(=O)N3CCC(N4CCOC4=O)CC3)C2)cc1", "note": "(configuration not stated)", "Potency": "inconclusive: 39.8 µM [inhibitor, single point]"},
      {"smiles": "CC1(C(=O)NCc2ccsc2)CCOCC1", "Potency": "inconclusive: 7.94 µM [inhibitor, partial curve, poor fit]"},
      {"smiles": "COc1ccc(CNC(=O)c2ccc(-c3ccc(N4CCSCC4)nc3)cc2)cc1OC", "activity change, negative = inhibition": "inactive: 9.12%"},
      {"smiles": "O=C(NC[C@H]1COCc2nc3cccnc3n21)c1ccc(Cl)cc1", "Potency": "inconclusive: 3.98 µM [inhibitor, partial curve, poor fit]"},
      {"smiles": "CNC(=O)[C@@H](C1CCCCC1)N1CCC[C@H]1C(=O)N(C)CCN(C)C", "Potency": "inconclusive: 28.2 µM [inhibitor, partial curve, poor fit]"},
      {"smiles": "Cc1nn(-c2ccccc2)c(Oc2ccccc2F)c1CCC(=O)NCc1ccco1", "Potency": "inconclusive: 39.8 µM [inhibitor, single point]"},
      {"smiles": "CC(Oc1ccc(Br)cc1)C(=O)N(Cc1nc(-c2ccccc2)no1)C(C)C", "note": "(configuration not stated)", "Potency": "inconclusive: 39.8 µM [inhibitor, single point]"},
      {"smiles": "CCOc1ccccc1NC(=O)N1CCC(N2C(=O)C3(CCCC3)C2c2ccccc2)CC1", "note": "(configuration not stated)", "Potency": "inconclusive: 17.8 µM [inhibitor, partial curve, poor fit]"},
      {"smiles": "O=C(Cn1nc2c(cc1=O)CCCCC2)Nc1ccncc1", "Potency": "inconclusive: 8.91 µM [inhibitor, single point]"},
      {"smiles": "CCOc1ccc(C(=O)c2cn(CC(=O)Nc3ccc(F)c(F)c3)c3cc4c(cc3c2=O)OCCO4)cc1", "Potency": "inconclusive: 2.82 µM [inhibitor, single point]"},
      {"smiles": "COC[C@@H]1CCCN1c1ncnc2c1CN(C1CCNC1)C(=O)CN2C", "note": "(some centres not stated)", "Potency": "inconclusive: 7.94 µM [inhibitor, partial curve]"},
      {"smiles": "N#CC1CCN(C(=O)C2CCCN2Cc2ccc(-c3cncnc3)cc2)CC1", "note": "(configuration not stated)", "activity change, negative = inhibition": "inactive: 22%"},
      {"smiles": "CCOc1ccccc1C(=O)Nc1ccc2nc3c(c(Nc4ccc(OC)c(OC)c4)c2c1)CCCC3", "Potency": "inconclusive: 39.8 µM [inhibitor, single point]"}
    ]}
  ]
}
